# The whole screen tested about 52,000 compounds, of which about 1,700 (3.3%) were called active. Rule as the data show it: active = survival mostly below about 52% (no sharp cut-off); inactive = mostly above about 56%. The list shows a part of the results.
# Tested on: Wild type
# Test: S. aureus survival, RN4220 and DeltatarO strains – OD600, teichoic acid synthesis inhibitors, primary screen (AID 463173)
# Conditions: S. aureus RN4220 wild type/DeltatarO growth, OD600, 18 h, active compounds read low, screened at 18.75 µg/mL (by protocol)
row,Structure (SMILES),survival
1,COc1ccccc1N1CCN(C(=O)Cn2ncc3c([nH]c4ccccc43)c2=O)CC1,inactive: 78%
2,Cc1ccc(CNC(=O)CCCCn2c(=O)c3ccccc3n(Cc3c(C)cc(C)cc3C)c2=O)cc1,inactive: 86%
3,COc1cccc(NC(=O)CSC2=Nc3ccccc3C3=NC(CC(=O)NCCc4ccccc4)C(=O)N23)c1 (configuration not stated),inactive: 136%
4,COc1ccc(OC)c(S(=O)(=O)N2CCC(c3ccncc3)CC2)c1,inactive: 124%
5,CCOCCCNC(=O)NC(C)c1c(-n2cccc2)sc2c1CCN(CC)C2 (configuration not stated),inactive: 123%
6,CCc1nnc(NC(=O)CCC(=O)N2CC3(C)CC2CC(C)(C)C3)s1 (configuration not stated),inactive: 113%
7,O=C(c1ccc2c(c1)N(Cc1ccccc1F)C(=O)c1ccccc1S2(=O)=O)N1CCCCC1,inactive: 90%
8,COc1cccc(NC(=O)CSC2=Nc3ccccc3N=C(c3ccc(F)cc3)C2)c1,inactive: 69%
9,CCc1ccc(C(=O)c2cn(CC(=O)NCCc3ccc(OC)c(OC)c3)c3nc(C)ccc3c2=O)cc1,inactive: 71%
10,CCc1ccc(-n2c(SCc3ccccc3F)nc3[nH]ncc3c2=O)cc1,inactive: 93%
11,O=C(CCc1nc(CN2CCN(S(=O)(=O)c3ccc(F)cc3)CC2)no1)N1CCCCC1,inactive: 71%
12,O=C1c2[nH]nc(-c3ccccc3O)c2C(c2ccc(Cl)cc2)N1Cc1ccco1 (configuration not stated),active: -1%
13,O=c1nc2sc3ccccc3n2c(=O)n1-c1ccc(Cl)c(Cl)c1,inactive: 27%
14,Cc1ccc2nc(N3CCN(Cc4nnnn4Cc4ccccc4)CC3)c(C#N)cc2c1,inactive: 110%
15,COc1ccccc1NC(=O)Cn1c(=O)n(-c2cccc(C(C)=O)c2)c(=O)c2c3c(sc21)CN(C(C)=O)CC3,inactive: 75%
16,NC(=O)Nn1c(CCC(=O)O)ccc1-c1ccc(Cl)cc1,inactive: 108%
17,O=C(CCC1N=C2c3ccccc3N=C(SCC(=O)Nc3ccccc3F)N2C1=O)NCc1ccccc1 (configuration not stated),inactive: 76%
18,CCN1CCN(C(=O)c2cnn(-c3ccc(F)cc3)c2-n2cccc2)CC1,inactive: 131%
19,Cc1ccc(C2C=C(c3ccc(Cl)cc3)Nc3nc(NS(=O)(=O)c4ccccc4)nn32)cc1 (configuration not stated),inactive: 75%

row,Structure (SMILES),survival
1,CCCCN(C)CCNC(=O)c1nn(-c2ccc(OC)c(Cl)c2)c(=O)c2c1c1ccccc1n2C,inactive: 77%
2,Cc1nn(-c2ccccc2)c2sc(C(=O)Nc3ccc(Cl)cc3Cl)cc12,inactive: 72%
3,Cc1cccc(N2CCN(C(c3ccccc3F)c3nnnn3C(C)C)CC2)c1C (configuration not stated),inactive: 105%
4,OCc1nc2ccccc2n1Cc1ccccc1Cl,inactive: 111%
5,COc1ccc(C(=O)Nc2nnc(SCc3cc(=O)c4cc(C)ccc4[nH]3)s2)cc1OC,inactive: 82%
6,Cc1cccn2c(=O)c(C(=O)N3CCN(c4ccccc4F)CC3)cnc12,inactive: 118%
7,CC(C)Cc1nc2ccc(N)cc2[nH]1,inactive: 124%
8,COc1ccc(CNC(=O)Cn2c(=O)c3cccn3c3cccnc32)cc1,inactive: 114%
9,COc1ccc2c(C)c(CCC(=O)NCCc3ccccc3)c(=O)oc2c1,inactive: 86%
10,COC(=O)C1=C(CS(=O)(=O)c2ccc(C)cc2C)NC(=O)NC1c1ccc(C)cc1 (configuration not stated),inactive: 81%
11,Cc1ccc(C(=O)CSc2nnc(CSc3nc(C)cc(C)n3)n2C)cc1,inactive: 104%
12,Cc1cc(C)c(S(=O)(=O)NCc2ccc3c(c2)CCN3C(=O)c2ccccc2)c(C)c1,inactive: 128%
13,COC(=O)c1ccc(NC(=O)c2c(NCc3cccc(F)c3)sc3c2CCCC3)cc1,inactive: 68%
14,N#C/C(=C(/O)CCCN1C(=O)c2ccccc2C1=O)c1nc2ccccc2[nH]1,inactive: 107%
15,Cc1cc2c(cc1S(=O)(=O)N(CCN(C)C)Cc1ccccc1)OCC(=O)N2,inactive: 75%
16,Cc1cccc(N2CCN(S(=O)(=O)c3cc(C(=O)Nc4ccc(Oc5ccccc5)cc4)ccc3F)CC2C)c1 (configuration not stated),inactive: 75%
17,COc1ccc(C(=O)NCCn2cc(SCC(=O)Nc3ccc4c(c3)OCCO4)c3ccccc32)cc1,inactive: 162%
18,COc1ccccc1C(c1c(O)cc(C)n(Cc2ccco2)c1=O)N1CCCCC1 (configuration not stated),inactive: 77%
19,Cc1ccc(NCC(O)CN)c(Br)c1 (configuration not stated),inactive: 115%

row,Structure (SMILES),survival
1,CCC(Oc1ccccc1F)C(=O)Nc1cc(-c2ccccc2)no1 (configuration not stated),inactive: 66%
2,COc1ccc(S(=O)(=O)N(CC(=O)NCCSc2ccc(C)cc2)c2ccc(C)cc2)cc1,inactive: 125%
3,CCOc1ccccc1NC(=O)CSc1c2c(nc3ccc(Cl)cc13)CCCC2,inactive: 54%
4,CCOc1ccccc1NC(=O)c1nc(S(=O)(=O)Cc2cccc(C)c2)ncc1Cl,inactive: 73%
5,CCc1c(-c2ccccc2)nc2ccccc2c1C(=O)NC(C)c1ccccc1 (configuration not stated),inactive: 45%
6,CCOC(=O)C1CCCN(S(=O)(=O)c2cc(-c3onc(C)c3C)ccc2OC)C1 (configuration not stated),inactive: 59%
7,Cc1[nH]c2ccc(C(=O)NCCCN3CCCCC3)cc2c1C,inactive: 119%
8,CC1CCc2onc(C(=O)Nc3ccc(Cl)cc3)c2C1 (configuration not stated),inactive: 59%
9,COc1ccc(-c2noc(CNC(=O)c3cc(OC)c(OC)c(OC)c3)n2)cc1,inactive: 88%
10,Cc1nc2c(c(C)c1CCC(=O)NCc1ccc(F)cc1)c(=O)n(C)c(=O)n2C,inactive: 77%
11,CCCN(c1ccccc1F)S(=O)(=O)c1ccc2c(c1)C(C)(C)C(=O)N2C,inactive: 71%
12,CC(=O)N1CCC(N(Cc2ccc(C)o2)C(=O)Nc2ccccc2F)CC1,inactive: 85%
13,OCCN1C2=NCCCN2c2ccccc21,inactive: 106%
14,CCOc1ccccc1NC(=O)Cn1nnc(C(=O)NCc2cccs2)c1N,inactive: 79%
15,CCOC(=O)c1cc(OC(=O)c2ccccc2F)n(-c2ccccc2)n1,inactive: 72%
16,COc1ccc(NCc2cc3cc4c(cc3n(CC(=O)Nc3ccc(C)cc3C)c2=O)OCO4)cc1,inactive: 72%
17,CCOc1c(Br)cc(C2C=C(C(=O)O)Nc3ncnn32)cc1OC (configuration not stated),inactive: 78%
18,CC(=O)N1c2ccccc2C(=O)C1N1CCN(c2ccc(Cl)cc2)CC1 (configuration not stated),inactive: 74%
19,O=C(NCc1ccccc1)c1cc(Sc2cccc(Cl)c2)nc2ccccc12,inactive: 78%

# Reference: PubChem BioAssay AID463173 (ICCB-Longwood Screening Facility, Harvard Medical School, 2010)
